From article PMC6919601, “Identification of Plasmodium dipeptidyl aminopeptidase allosteric inhibitors by high throughput screening” (PLoS ONE, 2019)
Out of some 110,000 compounds screened, about 230 (0.21%) showed an effect of 50% or more. Some of the results follow.

The molecules below were run against DPAP1 (Plasmodium falciparum, UniProt Q8IIJ9) (assay: primary screen, percent inhibition; read by cleavage of a fluorogenic dipeptide substrate; higher = more effect of the substance).
Set-up: species or system P. falciparum D10 trophozoite lysates; single well
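Note: 30 min substrate incubation versus DMSO and 10 µM JCP410 controls.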

DPAP1, sequence (Q8IIJ9 whole entry, looked up): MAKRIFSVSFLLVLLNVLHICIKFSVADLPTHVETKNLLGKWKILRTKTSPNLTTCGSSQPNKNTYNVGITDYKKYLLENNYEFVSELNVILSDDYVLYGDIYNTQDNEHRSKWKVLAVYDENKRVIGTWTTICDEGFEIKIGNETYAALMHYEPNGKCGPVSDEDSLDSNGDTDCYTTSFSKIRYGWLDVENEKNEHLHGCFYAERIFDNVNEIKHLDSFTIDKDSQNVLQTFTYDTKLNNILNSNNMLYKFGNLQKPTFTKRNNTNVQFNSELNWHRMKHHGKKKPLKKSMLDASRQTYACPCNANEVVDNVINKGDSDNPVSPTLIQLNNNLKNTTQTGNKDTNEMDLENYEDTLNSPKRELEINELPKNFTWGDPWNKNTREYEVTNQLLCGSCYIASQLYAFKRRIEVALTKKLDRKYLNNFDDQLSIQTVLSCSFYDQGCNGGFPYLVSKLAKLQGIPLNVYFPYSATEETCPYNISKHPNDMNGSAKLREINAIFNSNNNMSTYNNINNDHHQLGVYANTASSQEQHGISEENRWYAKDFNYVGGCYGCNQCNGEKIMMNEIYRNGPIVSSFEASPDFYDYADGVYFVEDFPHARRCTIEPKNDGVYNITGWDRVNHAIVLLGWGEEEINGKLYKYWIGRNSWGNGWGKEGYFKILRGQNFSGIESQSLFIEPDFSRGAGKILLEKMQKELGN

SMILES	% Inhibition @ 10 uM
COc1ccc(-n2c(SCc3nc(-c4cccs4)no3)nnc2-c2ccncc2)cc1	-4.02%
CC(C)(C)Sc1ccc(C(=O)O)s1	-0.0372%
CCC(=O)N1c2ccccc2N=C2CC(C)(C)CC(O)=C2C1c1cc(OC)c(OC)c(OC)c1 (stereo not drawn)	-1.44%
CCCCN1C(=O)C(NC(=O)c2ccc(C(C)(C)C)cc2)(C(F)(F)F)C2=C1CC(C)(C)CC2=O (stereo not drawn)	3.54%
Cc1ccc(CNC(=O)CC(C)n2nc(C)cc2C)cc1 (stereo not drawn)	3.66%
O=C1S/C(=C/c2cccc(O)c2)C(=O)N1Cc1ccc(F)cc1	-1.88%
CC(=O)N1CCN(C(C)Cc2ccccc2F)CC1 (stereo not drawn)	-6.62%
Cc1ccccc1NC(=O)C1C2CCC(O2)C1C(=O)O (stereo not drawn)	-3.34%
O=C(c1ccc(CS(=O)c2ccccc2)o1)N1CCOCC1 (stereo not drawn)	-4.96%
COc1ccc(C2C(C#N)=C(N)Oc3cc(N)ccc32)cc1 (stereo not drawn)	6.29%
Cc1ccc(CNC(=O)c2nnn(Cc3cccc(Br)c3)c2N)cc1	-8.27%
COc1ccc(C2=NS(=O)(=O)N(C)C(C(=O)N3CCc4ccccc4C3)=C2)cc1OC	-1.06%
N#CCNC(=O)C(CC1CCCCC1)C(=O)Nc1cccc(C(N)=O)c1 (stereo not drawn)	-5.21%
Cc1ccc(-c2nc(CS(=O)(=O)CC(=O)NCc3ccc4c(c3)OCO4)c(C)o2)cc1	-5.58%
C=CCOc1nc(-c2ccc(C)cc2)cc(-c2ccc(OC)cc2)n1	1.13%
Cn1c(CNC(=O)c2ccccc2)nc2ccccc21	-8.18%
COc1ccc(CNC(=O)C(CC(C)C)NS(=O)(=O)c2ccc3nc(C)sc3c2)cc1 (stereo not drawn)	2.12%
O=C(Nc1cccc(C(F)(F)F)c1)c1ccccc1C(=O)c1ncc[nH]1	2.65%
COC(=O)c1c(NC(=O)CCC(=O)O)sc(Cc2ccccc2)c1C	-3.21%
COc1ccc(CC(C)NC(C)CCCC(C)(C)O)cc1OC (stereo not drawn)	-1.81%
Cc1cc(=O)n2nc(N3CCCC(C(=O)NC(C)c4ccccc4)C3)sc2n1 (stereo not drawn)	-0.281%
COc1ccc(NC(=O)CSc2nc3ccccc3s2)c(OC)c1	-1.06%
COc1ccc(C(=O)Nc2ccc3c(c2)C(=O)N(C2CCCCC2)C3=O)cc1	2.62%
CCOc1ccc(CNC(=O)Cn2ncn3c(cc4sc(CC)cc43)c2=O)cc1	-3.47%
O=C(O)c1[nH]c(=O)[nH]c(=O)c1CN1CCCCC1	1.24%
Cc1ccc(-c2nc3cc(NC(=O)c4cccs4)ccc3[nH]2)o1	0.331%
CSc1nc(Cl)c(C#N)c(Nc2ccc3c(c2)OCCO3)n1	5.87%
